# Measurements from PubChem BioAssay AID485294 (National Center for Advancing Translational Sciences (NCATS), 2010).
# Hit rate of the full screen: of about 370,000 compounds, about 150 (0.041%) were called active. Inconclusive means that the source gave no clear call. Such entries were picked first, then a sample of the others. Calls follow the shape of the dose curve; as a rule, active = well fitted inhibition curve with a large enough effect; inconclusive = small, poorly fitted or top-dose-only effect; inactive = flat fitted curve, though single readings scatter. No potency is given beside an inconclusive call; the fits are too rough.
# Target: Beta-lactamase (Escherichia coli (strain K12)) (UniProt P00811)
# Chain of UniProt P00811 (P00811 whole entry, looked up): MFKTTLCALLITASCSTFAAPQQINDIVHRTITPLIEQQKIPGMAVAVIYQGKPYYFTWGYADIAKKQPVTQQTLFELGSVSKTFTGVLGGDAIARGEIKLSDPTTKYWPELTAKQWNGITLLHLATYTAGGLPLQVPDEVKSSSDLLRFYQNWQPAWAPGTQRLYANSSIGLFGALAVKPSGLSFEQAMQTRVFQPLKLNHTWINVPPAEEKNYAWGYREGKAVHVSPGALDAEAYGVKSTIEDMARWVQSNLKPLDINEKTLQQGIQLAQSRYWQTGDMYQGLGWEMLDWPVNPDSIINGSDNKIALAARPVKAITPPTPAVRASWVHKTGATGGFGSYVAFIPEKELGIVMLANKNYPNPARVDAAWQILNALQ
# Test: qHTS Inhibitors of AmpC Beta-Lactamase (assay with detergent); also: nearly all actives have a fitted effect of over 25% in size
# Conditions: AmpC hydrolysis of nitrocefin, absorbance 480 nm, 0.01% Triton; series mostly up to 114 µM
# Outline: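 20 mM phosphate pH 7.0 + 0.01% (detergent screen) or 0.0001% Triton X-100; 5.3 nM AmpC reagent; cpd preinc 15 min RT; nitrocefin (800 uM stock) to start; A480 q20 s × 4 min; Activity was normalised to no-enzyme and no-compound control wells.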
# Potency is read from the fitted curve at half-maximal effect; tags tell the direction and shape of the fitted curve.
row,SMILES,Potency
1,O=C(Cn1cnc2onc(-c3ccc(F)cc3)c2c1=O)N1CCN(c2ccc(F)cc2)CC1,inactive
2,CCOc1nc(OCC)nc(-n2cc(-c3ccccc3)nn2)n1,"inconclusive [inhibitor, single point]"
3,COc1ccccc1C1CCN(Cc2cccc3ccccc23)CC1,"inconclusive [inhibitor, full curve, poor fit]"
4,CCN=c1scc(-c2cccs2)n1/N=C/c1cc(OC)ccc1O,"inconclusive [inhibitor, full curve, poor fit]"
5,COc1cccc(CNC(=O)c2sc3ncccc3c2-n2c(C)ccc2C)c1OC,inactive
6,O=c1cc(N2CCN(c3ccccc3)CC2)[nH]c(=O)n1-c1ccccc1Cl,"inconclusive [inhibitor, full curve]"
7,CCn1cc(/C=C(\NC(=O)c2ccccc2F)C(=O)NCCCN2CCOCC2)c2ccccc21,"inconclusive [inhibitor, full curve, poor fit]"
8,NS(=O)(=O)c1ccc(CCNC(=O)CSc2ccc(Cl)cc2)cc1,"inconclusive [inhibitor, full curve, poor fit]"
9,CCCn1c(=O)c(C(=O)NCCCc2ccccc2)c(O)c2ccccc21,inactive
10,CC(C)NS(=O)(=O)c1ccc(NC(=O)Cc2cccs2)cc1,"inconclusive [inhibitor, full curve, poor fit]"
11,Cc1ccc(NC(=O)C2CCN(S(=O)(=O)c3cccc4nonc34)CC2)nc1,"inconclusive [inhibitor, partial curve]"
12,CCC(Sc1nnc2c3ccccc3n(CC)c2n1)C(=O)Nc1ccc(NC(C)=O)cc1 (stereo not given),inactive
13,Cc1ccccc1-c1nc(CS(=O)(=O)CC(=O)NCCCc2ccccc2)c(C)o1,inactive
14,O=C(N/N=C/c1ccco1)c1cc(-c2cccs2)[nH]n1,inactive
15,O=C1C(Cl)=C(Nc2ccccc2)C(=O)c2ccccc21,inactive
16,CCCC(=O)Nc1nnc(SCC(=O)Nc2ccc3c(c2)OCO3)s1,"inconclusive [inhibitor, full curve, poor fit]"
17,CN1CCC(Oc2ccccc2Sc2ccc(C(F)(F)F)cc2)CC1,"inconclusive [inhibitor, single point]"
18,Cc1[nH]c2ccccc2c1/C=N/Nc1nc(Nc2ccccc2)nc(N2CCOCC2)n1,inactive
19,COc1ccccc1NC(=O)CSc1nnc(NC(=O)C2CCC2)s1,"inconclusive [inhibitor, full curve, poor fit]"
20,CC(C)c1nc(NCCN2CCOCC2)c(C#N)c2c1COC(C)(C)C2,"inconclusive [inhibitor, partial curve]"
21,O=c1[nH]c(C2CCCN(S(=O)(=O)c3ccccc3F)C2)nc2c1nnn2Cc1ccccc1Cl (stereo not given),inactive
22,CCOc1oc(-c2ccc(OC)cc2)nc1C(F)(F)F,"inconclusive [inhibitor, full curve, poor fit]"

row,SMILES,Potency
1,C#CCOCCOCCOCCNc1nc(N2CCN(C(=O)[C@H]([C@@H](C)CC)n3cc([C@@H](N)CO)nn3)CC2)nc(N2CCN(C(=O)[C@H]([C@@H](C)CC)n3cc([C@@H](N)CC(C)C)nn3)CC2)n1,inactive
2,Cn1c(=O)[nH]c(=O)c2c1nc(Br)n2CCCSc1nc2ccccc2o1,"inconclusive [inhibitor, partial curve]"
3,Cn1c(O)c(C=NC2CC3CCC2(C)C3(C)C)c(=O)[nH]c1=O (stereo not given),"inconclusive [inhibitor, full curve, poor fit]"
4,Cc1cc(SCC(=O)OCC(=O)NC(C)c2ccccc2)c(C)cc1Br (stereo not given),"inconclusive [inhibitor, full curve, poor fit]"
5,Cc1ccc(NC(=O)CC2OC(=O)c3ccccc32)cc1S(=O)(=O)N1CCCCCC1 (stereo not given),"inconclusive [inhibitor, full curve, poor fit]"
6,COc1ccc(NC(=O)Cn2c(=O)n(-c3ccc(C)cc3)c(=O)c3c2c2cc(C)ccc2n3C)cc1,"inconclusive [inhibitor, single point]"
7,O=C(Cn1cnc([N+](=O)[O-])c1)NCc1ccc(F)cc1,"inconclusive [inhibitor, full curve, poor fit]"
8,Cc1ccc(Cc2c(C)nc3nc(SCC(=O)NCCC(C)C)nn3c2C)cc1,"inconclusive [inhibitor, single point]"
9,CCCCN1C[C@H](Cc2ccccc2)[C@@H](CC(=O)Nc2ccccc2)C1=O,"inconclusive [inhibitor, full curve, poor fit]"
10,COc1ccc(C)cc1NC(=O)C(C)N(c1ccc(C)cc1)S(C)(=O)=O (stereo not given),inactive
11,CCc1ccc(N2CC(C(=O)OCC(=O)NNC(=O)c3ccccc3)CC2=O)cc1 (stereo not given),"inconclusive [inhibitor, full curve]"
12,O=S(=O)(NCC1CC1)c1cccc(S(=O)(=O)N2CCCC2)c1,"inconclusive [inhibitor, full curve, poor fit]"
13,Cc1ccccc1-n1c(O)c(/C=N/N2CCOCC2)c(=O)[nH]c1=S,"inconclusive [inhibitor, full curve, poor fit]"
14,Cc1cccc(OCC(=O)NC(=S)N2CCCc3ccccc32)c1,inactive
15,O=c1[nH]c2ccccc2c(O)c1O,"inconclusive [inhibitor, partial curve]"
16,O=C(COC(=O)CCN=C1NS(=O)(=O)c2ccccc21)NNC(=O)c1ccc(Cl)cc1,"inconclusive [inhibitor, full curve, poor fit]"
17,CCNC(=S)N1CCN(c2ccc([N+](=O)[O-])cc2)CC1,inactive
18,NC(=O)CCN1CCN(CCOC2Cc3cc(Cl)ccc3Sc3ccccc32)CC1 (stereo not given),"inconclusive [inhibitor, partial curve]"
19,Cc1nc(COC(=O)c2ccc(S(=O)(=O)N3CCCC3)cc2)cs1,"inconclusive [inhibitor, full curve, poor fit]"
20,O=C(CSc1ccccc1F)OCC(=O)N1CCN(C(=O)c2ccco2)CC1,"inconclusive [inhibitor, full curve, poor fit]"
21,Cc1ccc(S(=O)(=O)N2CCOCC2)cc1NC(=O)COC(=O)c1cc(=O)[nH]c2ccccc12,"inconclusive [inhibitor, full curve, poor fit]"
22,Cc1cc(C)c(S(=O)(=O)NCC(=O)NCc2ccco2)c(C)c1,"inconclusive [inhibitor, single point]"

row,SMILES,Potency
1,COC(=O)c1cccc(NC(=O)/C(=C\c2ccccc2)NC(=O)c2ccccc2Cl)c1,inactive
2,CC(NCC(=O)Nc1cc(S(=O)(=O)N2CCCCCC2)ccc1Cl)c1ccccc1 (stereo not given),inactive
3,CC(=O)Nc1ccc(C(=O)OCC(=O)N(C)C2CCCCC2)cc1,inactive
4,O=[N+]([O-])/C(=C\Nc1ccc(F)cc1F)S(=O)(=O)c1ccccc1,"inconclusive [inhibitor, single point]"
5,N#Cc1nc(Nc2cccc(Cl)c2)c2ncn(C3CCCC3)c2n1,inactive
6,CCOC(=O)C1=C(CNCc2ccccc2Cl)NC(=O)NC1c1ccc2c(c1)OCO2 (stereo not given),"inconclusive [inhibitor, full curve]"
7,CCCC1(c2ccccc2)NC(=O)N(CC(=O)Nc2cc(C)ccc2OC)C1=O (stereo not given),"inconclusive [inhibitor, full curve]"
8,O=C(CCc1ccccc1)Nc1ccnn1C1CCN(C/C=C/c2ccccc2)CC1,"inconclusive [inhibitor, single point]"
9,CC(C)c1ccccc1OCC(=O)Nc1nnc(C2CC2)s1,inactive
10,Nc1c(C(=O)c2ccc(F)cc2)oc2ccccc12,inactive
11,COc1ccc(N2CCN(C3CC(=O)N(c4ccc5c(c4)OCCO5)C3=O)CC2)cc1 (stereo not given),"inconclusive [inhibitor, full curve, poor fit]"
12,COCc1cc(C)nc(Nc2cc(C)ccc2C)c1C#N,"inconclusive [inhibitor, full curve, poor fit]"
13,Clc1ccc2nnnc(-c3ccccc3)c2c1,"inconclusive [inhibitor, partial curve, poor fit]"
14,O=C1NC(=O)/C(=C\c2ccc(Oc3ccc([N+](=O)[O-])cn3)cc2)S1,"inconclusive [inhibitor, partial curve, poor fit]"
15,O=C(Cc1n[nH]c(=O)c2ccccc12)OCC(=O)c1ccc(OC(F)F)cc1OC(F)F,"inconclusive [inhibitor, single point]"
16,COc1cc(C)ccc1OCc1cc(C(=O)N2CCCCCC2)no1,"inconclusive [inhibitor, full curve]"
17,COc1cc(/C=C2\SC(=S)N(CCC(=O)N3CCCCC3)C2=O)cc(OC)c1OC,"inconclusive [inhibitor, partial curve, poor fit]"
18,CN(C)C(=O)c1ccc(NC(=O)COC(=O)Cn2cc(C(F)(F)F)ccc2=O)cc1,"inconclusive [inhibitor, full curve, poor fit]"
19,CCn1c2ccccc2c2cc(NC(=O)c3ccco3)ccc21,"inconclusive [inhibitor, single point]"
20,Cc1cc2oc(=O)cc(CN3CCN(Cc4ccc5c(c4)OCO5)CC3)c2cc1C,"inconclusive [inhibitor, full curve, poor fit]"
21,CC(C(=O)NCC1(c2ccccc2)CCCC1)N1CCOCC1 (stereo not given),"inconclusive [inhibitor, single point]"
